Measurements as given in the BET-seq Pho4 binding data (Le et al. 2018).
The list shows a part of the results. The energies were worked out here from pooled read counts, against the library average; single values are noisy.

The sequences below were run against T1, Pho4 (S. cerevisiae) (UniProt P07270) (assay: relative binding free energy (BET-seq); higher = weaker binding). Settings: reference: library average.
T1 sequence: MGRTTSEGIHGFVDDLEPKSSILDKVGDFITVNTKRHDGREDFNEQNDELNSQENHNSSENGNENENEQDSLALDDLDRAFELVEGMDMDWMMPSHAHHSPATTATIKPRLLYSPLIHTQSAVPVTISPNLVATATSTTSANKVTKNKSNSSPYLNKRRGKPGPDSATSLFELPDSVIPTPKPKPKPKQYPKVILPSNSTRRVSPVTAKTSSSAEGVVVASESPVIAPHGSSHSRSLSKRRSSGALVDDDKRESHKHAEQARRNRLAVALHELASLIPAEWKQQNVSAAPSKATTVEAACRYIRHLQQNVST

Relative binding free energy, -0.08 kcal/mol:
GTAATCACGTGGGCTT, GTAGACACGTGGGGTG, TGTGTCACGTGGCTAA

Relative binding free energy, 0.17 kcal/mol:
GGTTACACGTGTTTAT

Relative binding free energy, 0.41 kcal/mol:
GTTTTCACGTGTGGTC

Relative binding free energy, 0.04 kcal/mol:
AAGGGCACGTGGAATT, ATTAGCACGTGTGCTA, TCAGTCACGTGTCGGT, GTCGTCACGTGGTTCG, TTCGACACGTGGTTTT

Relative binding free energy, 0.34 kcal/mol:
CTTTTCACGTGTAAGT

Relative binding free energy, -0.1 kcal/mol:
GATAGCACGTGGTGTG, ACGAGCACGTGTGGGG, GGTGCCACGTGGTCTT, TAATCCACGTGGGTGT

Relative binding free energy, 0.15 kcal/mol:
GCTGTCACGTGGGATC, CGCGTCACGTGTGATG, GTAAGCACGTGATGGT, GAATTCACGTGGTGAT, TATATCACGTGTTTGT, AAGTGCACGTGAAGTA

Relative binding free energy, -0.34 kcal/mol:
TGAGGCACGTGGCGTA

Relative binding free energy, 0.06 kcal/mol:
GGGCACACGTGAGAGG, CGGAACACGTGGAGGT, ATTTCCACGTGGCGTG, TTTAGCACGTGATAGG, ATGGTCACGTGTCTAG

Relative binding free energy, -0.26 kcal/mol:
AGGGGCACGTGGGTTC

Relative binding free energy, 0.02 kcal/mol:
GGTGGCACGTGTCGGT, ATTTCCACGTGGTGTA, GTACGCACGTGTCGGT, AGATGCACGTGTGTGG, GCTTGCACGTGGATAG, TTGCACACGTGTGTTT, TGGGTCACGTGGTCGT

Relative binding free energy, 0.2 kcal/mol:
TGCTGCACGTGGAAAT, GTGTTCACGTGCTTTG, TTTATCACGTGATTAG

Relative binding free energy, 0.24 kcal/mol:
AACTTCACGTGTGTGA, AGGTCCACGTGAGGGT, TATGACACGTGACGTG, GCATTCACGTGGTTTT, GTGGTCACGTGGATTG, CAGCTCACGTGTTGTG, TGGTTCACGTGTTACG, CGTAACACGTGATGTT

Relative binding free energy, 0.22 kcal/mol:
TTGTTCACGTGCAATG, ATTTTCACGTGTAGTG, TAAAACACGTGAGGGG, AGTTGCACGTGAGAGC

Relative binding free energy, 0.13 kcal/mol:
GTGGTCACGTGGGGCT, TCGCGCACGTGAAGGT, ATTGTCACGTGACGGG, ATTTACACGTGTGAGA, TAAATCACGTGCGTTG, TGGGTCACGTGTAGGA, CAAGTCACGTGGAGTT, TGGGACACGTGAGCTT

Relative binding free energy, 0.27 kcal/mol:
TTTCTCACGTGACGGT, TAGTTCACGTGTTCGA, TATTTCACGTGGTGGG, GAATTCACGTGGGTGA, ACTGTCACGTGTGAAT

Relative binding free energy, 0.33 kcal/mol:
TCGGTCACGTGATTTT, GTTGACACGTGAAGTA, GGGTTCACGTGGATAT

Relative binding free energy, 0.36 kcal/mol:
AGGTTCACGTGAGTTT, GGGTTCACGTGGCGGA, TGATTCACGTGTGATT

Relative binding free energy, -0.12 kcal/mol:
TATGGCACGTGTTAGA, GGGCGCACGTGCGGTA

Relative binding free energy, -0.03 kcal/mol:
GTTCCCACGTGGGAGG, TTATGCACGTGTAGGC, GTTAGCACGTGGGGAA, TCGGTCACGTGGTGTT

Relative binding free energy, 0.01 kcal/mol:
ATAGGCACGTGTTGAG, GGCTGCACGTGTCGGT, AGTTGCACGTGTCGGG, AGACGCACGTGAGGGT

Relative binding free energy, -0.19 kcal/mol:
AGGGGCACGTGTTATG

Relative binding free energy, 0.43 kcal/mol:
GTTTTCACGTGAGAGC

Relative binding free energy, 0.47 kcal/mol:
TATTACACGTGAGAAG

Relative binding free energy, 0.09 kcal/mol:
CGTCGCACGTGAGGTG, TTTGTCACGTGTCTGA, ATGGTCACGTGGACGG, TTAAGCACGTGAGTCT, GTTACCACGTGTTAGG

Relative binding free energy, 0.37 kcal/mol:
TGGATCACGTGAGAGG

Relative binding free energy, 0.08 kcal/mol:
TGGGACACGTGTGTCG, CGCTACACGTGTGGTG, TGAGTCACGTGTGGAC, AGTTGCACGTGTGAAA, TTGTGCACGTGTGGCT

Relative binding free energy, -0.24 kcal/mol:
TGCCGCACGTGGGCGG

Relative binding free energy, 0.23 kcal/mol:
GGCATCACGTGATAGG, GGAGTCACGTGTGTAT, TTAGCCACGTGAGATG, TAGTTCACGTGGGGGT

Relative binding free energy, 0.32 kcal/mol:
GGTTGCACGTGAGAAT, TTGTTCACGTGCCGTG, ATGTTCACGTGATGAT, TTTATCACGTGTTGCG

Relative binding free energy, 0.4 kcal/mol:
GGGTACACGTGAATGA

Relative binding free energy, 0.3 kcal/mol:
CGGCTCACGTGATGTT, TTTTTCACGTGCAATT

Relative binding free energy, 0.44 kcal/mol:
GTTTTCACGTGATTAT

Relative binding free energy, 0.19 kcal/mol:
GATGACACGTGTATGG, AGTGTCACGTGAGTAC, TTTGGCACGTGAATTG, GTCGGCACGTGTATTA, AAGTACACGTGTTTTA

Relative binding free energy, 0.26 kcal/mol:
GAACGCACGTGATTGT, TGCTTCACGTGTTGTC, GGTCTCACGTGAGGTG

Relative binding free energy, 0.54 kcal/mol:
TAGCGCACGTGAGATT

Relative binding free energy, -0.16 kcal/mol:
TTCAGCACGTGTAGTG

Relative binding free energy, 0.21 kcal/mol:
AAGTCCACGTGTTATT, CGTTTCACGTGCGAGT, TATGTCACGTGATGTG

Relative binding free energy, -0.15 kcal/mol:
TATGGCACGTGGCTCG, TACAGCACGTGGGTGG

Relative binding free energy, -0.11 kcal/mol:
TAGGACACGTGGGACG

Relative binding free energy, -0.14 kcal/mol:
AAGTACACGTGGGGGG, ACGTACACGTGGGGGG

Relative binding free energy, 0.31 kcal/mol:
GGTAGCACGTGATGTG

Relative binding free energy, 0.16 kcal/mol:
TATATCACGTGTGATG, TGTTCCACGTGTTGCT, ATAGGCACGTGAGTGA, GTTTGCACGTGTTTGG, AATGTCACGTGTAGTC, TGGGTCACGTGTGACT

Relative binding free energy, -0.17 kcal/mol:
TGTGGCACGTGCCGCT, AAGGGCACGTGCGTTG, AGTAGCACGTGTCGTT

Relative binding free energy, 0.25 kcal/mol:
TTTGCCACGTGAATGA, GTATTCACGTGTGCTG, TTAATCACGTGAGTGT, TTGTTCACGTGGCTCA, TAAGGCACGTGAAGAA

Relative binding free energy, -0.3 kcal/mol:
GGTGGCACGTGGCCGT

Relative binding free energy, 0 kcal/mol:
TATGTCACGTGTTTAA, ATGTGCACGTGCTGGT, TTATGCACGTGTTCTC, TGTCGCACGTGTTTTC, TTGTGCACGTGATAGA, CGTTACACGTGTTTGA

Relative binding free energy, -0.04 kcal/mol:
CGTAACACGTGTGGTT

Relative binding free energy, -0.2 kcal/mol:
GTCGGCACGTGGTAGA, GGTAGCACGTGGCGGC

Relative binding free energy, 0.14 kcal/mol:
GGCGTCACGTGTTTTA, GTTGACACGTGGATGG, GTTCTCACGTGGTGTT, AGGGGCACGTGAGTAG, GTCTGCACGTGGATAT, AGCGTCACGTGTTTAG, CATGTCACGTGAGGGA, AAGTGCACGTGTGGCT, TGTTACACGTGGACAG

Relative binding free energy, -0.01 kcal/mol:
TAAGGCACGTGTCTTG, GGCAACACGTGGGGGG, CGGGTCACGTGGCCTG, ATTGCCACGTGATTTT, GTGGGCACGTGTTGCC, TAGTGCACGTGCGGGT

Relative binding free energy, -0.07 kcal/mol:
AGGTGCACGTGTGAAG, CGAAGCACGTGTGGGA, TTTTGCACGTGCCGGA

Relative binding free energy, -0.21 kcal/mol:
TGAGGCACGTGGGATA

Relative binding free energy, -0.13 kcal/mol:
AGTGGCACGTGTTACT, GGTAGCACGTGTTGGT, ACTGGCACGTGTTGGG, CCTGGCACGTGTGGGT

Relative binding free energy, -0.29 kcal/mol:
AATAGCACGTGGTATA

Relative binding free energy, 0.1 kcal/mol:
TATCACACGTGTGTTT, GTGCTCACGTGGTATA, GGTTGCACGTGCAGGG

Relative binding free energy, -0.25 kcal/mol:
TGAGGCACGTGCGTTA

Relative binding free energy, 0.29 kcal/mol:
TACTTCACGTGGAATT

Relative binding free energy, 0.38 kcal/mol:
ATTATCACGTGAAGAG, TATTTCACGTGATGGG

Relative binding free energy, 0.07 kcal/mol:
TGTGTCACGTGTAGCG, GTTTGCACGTGCAATG, AGTGTCACGTGTGGGT, GTTTGCACGTGGGAAG

Relative binding free energy, 0.18 kcal/mol:
TTTGACACGTGAGGCT, GGTCGCACGTGAATTG, GGGACCACGTGTGAGA, TAGATCACGTGGATAG, AAGCTCACGTGTGGAT

Relative binding free energy, -0.05 kcal/mol:
ATGTGCACGTGTAGGG, AGACGCACGTGTGGGC, GTCGGCACGTGCGGGC, GTTGGCACGTGGAGAG

Relative binding free energy, -0.22 kcal/mol:
TTTGGCACGTGCATAA

Relative binding free energy, 0.28 kcal/mol:
GTTGCCACGTGAGTTA

Relative binding free energy, -0.06 kcal/mol:
CGGTGCACGTGTTTAG, TGCGTCACGTGGCTTG, TATGACACGTGTTATA, ATTAGCACGTGACGTT, TCGTGCACGTGGGTTC

Relative binding free energy, 0.12 kcal/mol:
AGAATCACGTGTGGGT, AGGGTCACGTGGCTGT, GGGTGCACGTGATTTC, GTAAGCACGTGTGTTC, TTACGCACGTGAAGGG

Relative binding free energy, -0.18 kcal/mol:
TATCCCACGTGGTGGT

Relative binding free energy, 0.11 kcal/mol:
AGTGACACGTGAGGGC, ATAGTCACGTGGCGAT, GGTGGCACGTGTTGGT

Relative binding free energy, 0.03 kcal/mol:
GTTATCACGTGGGGAG, AACGTCACGTGGTGGA, ATATGCACGTGTCGTA, TGCGTCACGTGTTAGA, GGGGACACGTGTTGAA, TGTGTCACGTGTAGGT, GGTGTCACGTGGGGTT, GATGGCACGTGCTTGG

Relative binding free energy, -0.27 kcal/mol:
CAGAGCACGTGGGCGT, TGCAGCACGTGGGTAT

Relative binding free energy, -0.02 kcal/mol:
TTATGCACGTGGAGGC, TTTGACACGTGGCTAG, TTAGTCACGTGCGCGT, CGTTACACGTGGTATA, ATGGTCACGTGGTCGG, GTATACACGTGTTGAA, TATAACACGTGGCTGT, GGAGACACGTGGTGTT

Relative binding free energy, 0.05 kcal/mol:
TTAGACACGTGGTCGC, ATGTCCACGTGGGAAT, CGAGGCACGTGATGGC
